# Laboratory results published in the supplement of paper PMC12632987.
# The full ranking holds about 1,800 sequences; the median of “median log2 fold change of GCK-ALFA target abundance (FLAG IP / Myc IP barcode read proportion)” is about 0.14, and the lowest 2% start at about -0.84. Some of the results follow.
# T1: TRAF2, Q12933
# T1 chain: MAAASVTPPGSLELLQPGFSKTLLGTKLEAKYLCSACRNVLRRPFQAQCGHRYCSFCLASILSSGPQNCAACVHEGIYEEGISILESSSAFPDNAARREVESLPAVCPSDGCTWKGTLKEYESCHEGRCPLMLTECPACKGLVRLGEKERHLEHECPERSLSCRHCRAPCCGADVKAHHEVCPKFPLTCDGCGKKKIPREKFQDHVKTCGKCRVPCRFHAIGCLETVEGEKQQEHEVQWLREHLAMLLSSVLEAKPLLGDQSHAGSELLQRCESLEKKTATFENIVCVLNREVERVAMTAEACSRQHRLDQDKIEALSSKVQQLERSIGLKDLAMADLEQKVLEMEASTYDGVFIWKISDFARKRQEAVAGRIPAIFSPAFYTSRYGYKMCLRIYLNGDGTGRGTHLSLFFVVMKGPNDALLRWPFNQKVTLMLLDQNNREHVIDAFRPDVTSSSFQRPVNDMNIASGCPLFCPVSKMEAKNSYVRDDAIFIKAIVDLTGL
# B1: traf2_out_17_178_1720 (protein)
# chain: SKEEYRKKISELTDKLIDLAEAAAARLLALARAEGTLSPEELAALEAARRRGSPNDTLALMRRVAPRLRSAAEAEALLADFEAQSKALAKEIAELYEKYE
# B2: traf2_out_18_3_1944 (protein)
# chain: AEEEIKKYTEELDEIFDEHAAWVLARAEEAAAADPRAAPLLERVKALLAQGHLGSSLTNTLVDGLRALGRTEEAAEVEEKASEFFKKASEAIDKIEEARK
# B3: traf2_out_6_166_2472 (protein)
# chain: SEELRKRVDEIIKKLGEYEPEVVIEAFEILAEKRSDRRALLARQLASGVRQGKKAGLKTETIISAFVDGMIALGVPIEEILELLEEVLEIAEKLAEERKK
# B4: traf2_out_20_3_2246 (protein)
# chain: MELREKAEKYLEEAEKLLKEVEPLLPAERAAELRELLKKAREAFKTDLTDALVYLSELRRLALELAEEARAAGDEETARLLEELAEAVGKAANHIYKIVE
# B5: traf2_out_13_95_1059 (protein)
# chain: SAELAKKINELADEAEERILAILDEAAKKLAGDPAAVAVLEQAKDLALNKGWTEAIALLRAAAAAHPEHKADFEATIAEIEAVRRKLGREVAKLIKEEQE
# B6: traf2_out_17_178_1669 (protein)
# chain: NKEEYRKKISELTDELIDLTEETGRRLLALAEAEGRLSPEELALLRAALRSGSANTLLAVARRLAPKLSSREEAQALLDEFEKEYKELSKKIAEAYEKYE
# B7: traf2_out_11_169_818 (protein)
# chain: EEAEKNRKINDFALELNDEAKKKLLEYALKLAKEEGLDVEEVKAIFEKHKNSSLSAVAAALIDYFRSKGKEEAAKAVLEKYEELKDEINKKVTEKIKELE
# B8: traf2_out_6_166_2459 (protein)
# chain: ESETLKEIREIIKELSKYSTEIIVKAFDEVAKKVDEESARILRQLKSAVEQAEKLGLDVETALTATVLGLITLGVPEETLLKLLKEVLKEAKKIAEEKEK
# B9: traf2_out_20_154_1998 (protein)
# chain: VSDEEIEKLSDELVEYSAKRRAYEVAALALENPEKADEIWATAYEEYKNDALMMKYLDEAKAKVEAGATLEEFKKEAEEYAKKAREYGEKLEKALEERRK
# B10: traf2_out_17_162_1626 (protein)
# chain: SPLEEEIAELEERLKELEEKLKELEKKAENIEKLSKEELTDLLVEASEARREALELAERIRELRKKYNRPELDELLERAEEIAEKFQRIANLFYEELLKK
# B11: traf2_out_14_149_1240 (protein)
# chain: SHMAELFKAAAELAEKAAKALEEVLKLLKAGKVEEAKKLLKETIKYLEEEGKKHGITISIVFKLEHILELLDKDVEEAKKAAEEAAKEAKNRAEAYKSLA
# B12: traf2_out_11_169_775 (protein)
# chain: EEAEKNRKINDFALELNDEAKKKLEEFALELAEKEGLDVEEIKKIFEKNKNSSLSAVAAALIEYFESKGKEEAAKAILEKYEELKEEINKKSSAFIKSLE
# B13: traf2_out_6_3_2507 (protein)
# chain: SDEEERKRNEEAFELASEISIENLKKAADTLLKRLKELVEDPNASDSDVLAAASALTLTLEILRKSAEKNPEKKEEAEKYIKEKEKELEELLKKWKEKRK
# B14: traf2_out_20_8_2269 (protein)
# chain: MSMEEKLARAADLILDAKDLVRAVIREVLADERAPAIAAEAAAAISVSVSADDTDADILLRIRERATEALTRLAERTGDPRLEEARARVAAALDAAAAAA
# B15: traf2_out_15_48_1345 (protein)
# chain: NTEKLQEVARQIADRADATRDAVLARLEALRARADPAEQALLDELIALVRSGATLRTVLGALEAARPRLSPELAAALAALAAEIRATLRESSRLFNEAEA
# B16: traf2_out_6_156_2420 (protein)
# chain: KVEEIKKKTLEEIKELIKKLSEASEEKKISYINKIAGTVYRALQQLKALGASVEEIEAFVKEVLEFAKKEAEKAGLPEDVINLLLGSIQAVGDVAIAEAK
# B17: traf2_out_13_95_1073 (protein)
# chain: SLELAKKIMEIADEAEERIEKLLKEAQKELADNPEAVAVLKEALELARKKGVSAAIHLLREAAKANPENAAKFKALIEEIEAIRREAGREVAKLIKEEEE
# B18: traf2_out_6_156_2458 (protein)
# chain: SIEEIEEETLERLEELLEKLAEASEEEKIKYINEIAGTVYRGLQRLREAGASLEEIEAFVERVLEFVEEKAEELGIPEDTKNLLLASLRAVGDAAIESAK
# B19: traf2_out_11_155_723 (protein)
# chain: EKKREAQNKIVDKSLEIGDKLLAEVEKIIKEIAKEDPEVAKELKKVVEKYLKYSNTSAARAAIDLLKEAGYEEEAAKLEKALEEAQKEKSEFIQKVEEEL
# Molecular target: T1, TRAF2, Q12933
# Experiment: median log2 fold change of GCK-ALFA target abundance (FLAG IP / Myc IP barcode read proportion) (log2 ratio); each designed protein is fused to an ALFA-tag nanobody in HEK293 cells to bring the named protein to FLAG-tagged glucokinase (GCK); Myc marks an untargeted standard; higher = target protein stabilised (more abundant)
# Conditions: target protein: 3xFLAG-MCP-GCK-ALFA reporter; HEK293 landing pad (RPLP)
# Summary of the method: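 Sequencing of reverse-transcribed, amplified circular RNA barcodes from anti-FLAG and anti-Myc immunoprecipitates provided the readout for an ALFA-nanobody-fused binder library recombined into HEK293 landing-pad cells. Those cells were induced with 2 μg mL^−1 doxycycline, transfected with a plasmid expressing a FLAG-tagged target and a Myc-tagged standard, and lysed after 48 h. Target abundance is the per-binder median log2 ratio of FLAG to Myc barcode read proportions. Only barcodes at a proportion of ≥10^−7 in both replicates and binders with ≥3 barcodes per replicate were kept, with a 10^−6 pseudocount added before the two replicates were pooled.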
row,Binder,median log2 fold change
1,B1,0.2
2,B2,0.132
3,B3,-0.148
4,B4,0.251
5,B5,-0.0638
6,B6,0.0703
7,B7,0.262
8,B8,0.077
9,B9,-0.0179
10,B10,0.131
11,B11,-0.551
12,B12,0.177
13,B13,-0.0319
14,B14,0.0236
15,B15,0.234
16,B16,0.0642
17,B17,-0.447
18,B18,0.167
19,B19,0.14
